Screen size: about 350,000 compounds; about 31,000 (8.9%) were called active. The shares of active, inactive and inconclusive entries below differ from those in the screen. Calls come from the whole dose curve; as a rule, active = well fitted inhibition curve with a large enough effect; inconclusive = small, poorly fitted or top-dose-only effect; inactive = no such curve, though single readings can be large or run the other way. Potencies of inconclusive entries are doubtful fits and often do not repeat.
target: Histone-lysine N-methyltransferase EHMT2 (Homo sapiens) (UniProt Q96KQ7); test: qHTS Assay for Inhibitors of Histone Lysine Methyltransferase G9a; details: G9a H3K9 monomethylation, AlphaScreen, 2 h; activity, negative = inhibition: at 59 µM (top of the series) unless noted; note: nearly all actives have a fitted effect of over 75% in size
Outline: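 Using a bead-based AlphaScreen, monomethylated H3K9 product from 2 h room-temperature reactions (G9a 20 nM, peptide 500 nM, SAM 20 uM) was detected with 0.5 ug/mL rabbit anti-H3K9me1 antibody.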
% is set by controls: 0 for no effect and ±100 for the full control effect; potency is the fitted concentration of half-maximal effect; tags give direction and shape of the fitted curve.

Sequence of UniProt Q96KQ7 (Q96KQ7 whole entry, looked up): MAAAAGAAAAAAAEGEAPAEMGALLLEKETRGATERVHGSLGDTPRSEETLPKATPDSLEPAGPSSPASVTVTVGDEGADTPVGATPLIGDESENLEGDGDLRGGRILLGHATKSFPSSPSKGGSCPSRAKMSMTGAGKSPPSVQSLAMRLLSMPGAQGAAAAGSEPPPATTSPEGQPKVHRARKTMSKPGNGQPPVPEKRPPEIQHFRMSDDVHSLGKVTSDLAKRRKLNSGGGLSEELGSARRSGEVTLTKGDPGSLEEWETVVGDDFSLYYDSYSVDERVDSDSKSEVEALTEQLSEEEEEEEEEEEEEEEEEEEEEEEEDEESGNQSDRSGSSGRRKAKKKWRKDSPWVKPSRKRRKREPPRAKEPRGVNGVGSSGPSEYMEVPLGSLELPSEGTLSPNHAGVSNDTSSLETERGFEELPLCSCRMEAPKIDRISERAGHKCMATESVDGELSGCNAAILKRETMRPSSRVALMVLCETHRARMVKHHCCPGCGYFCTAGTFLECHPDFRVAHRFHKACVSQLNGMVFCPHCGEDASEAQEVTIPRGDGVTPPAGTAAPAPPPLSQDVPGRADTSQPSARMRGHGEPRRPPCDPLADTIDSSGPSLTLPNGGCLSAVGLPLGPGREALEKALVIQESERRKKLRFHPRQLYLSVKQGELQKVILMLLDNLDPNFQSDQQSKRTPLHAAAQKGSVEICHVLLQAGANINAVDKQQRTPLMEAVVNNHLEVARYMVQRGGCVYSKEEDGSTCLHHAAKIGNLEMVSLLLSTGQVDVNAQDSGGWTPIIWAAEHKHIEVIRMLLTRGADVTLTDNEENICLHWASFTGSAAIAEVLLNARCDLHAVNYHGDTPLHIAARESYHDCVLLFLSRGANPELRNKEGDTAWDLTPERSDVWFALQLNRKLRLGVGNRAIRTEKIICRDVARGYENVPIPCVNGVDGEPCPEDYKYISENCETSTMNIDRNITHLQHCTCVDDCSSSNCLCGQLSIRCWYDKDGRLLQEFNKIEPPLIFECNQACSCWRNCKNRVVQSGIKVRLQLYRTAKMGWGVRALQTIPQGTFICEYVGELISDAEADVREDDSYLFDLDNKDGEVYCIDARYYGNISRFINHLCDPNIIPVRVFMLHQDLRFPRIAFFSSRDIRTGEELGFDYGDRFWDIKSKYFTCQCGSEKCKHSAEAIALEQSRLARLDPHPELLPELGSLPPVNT

Question: `Cc1c(NC(=O)c2cccc(NC(=O)Cc3c(F)cccc3Cl)c2)c(=O)n(-c2ccccc2)n1C` was tested. Which Potency did it give?
Answer: inconclusive: 7.08 µM [inhibitor, single point]

Question: Which Potency does the source give for `COc1ccccc1CNC(=O)c1ccc2[nH]c(C)c(C)c2c1` here?
Answer: inconclusive: 17.8 µM [inhibitor, partial curve, poor fit]

Question: Which Potency does the source give for `COc1ccc(C)cc1S(=O)(=O)N1CCN(C/C=C/c2ccccc2)CC1` here?
Answer: inconclusive: 3.98 µM [inhibitor, single point]

Question: Which “activity, negative = inhibition” value does the source give for `O=C(COc1ccc(F)cc1)Nc1nnc(S(=O)(=O)N2CCCC2)s1` here?
Answer: inactive: -3.27%

Question: With `COc1ccc(NC(=O)CN(C)C(=O)C2CCCO2)cc1` (stereo unspecified) as the compound, how does the “activity, negative = inhibition” value read?
Answer: inactive: 6.58%

Question: With `Cc1cc(=O)oc2cc(OCC(=O)OCC(=O)Nc3ccc4ccccc4c3)ccc12` as the compound, how does the Potency read?
Answer: inconclusive: 12.6 µM [inhibitor, partial curve, poor fit]

Question: With `Cc1ccc(-c2ccc(CCC(=O)O)n2-c2ccc(O)cc2)cc1` as the compound, how does the activity, negative = inhibition read?
Answer: inconclusive: -82.4% [inhibitor]

Question: How did the “activity, negative = inhibition” value turn out when `CCOc1ccc(N2C(=O)c3cccnc3C2Nc2ccc(OC)cc2)cc1` (stereo unspecified) was run?
Answer: inactive: -11.2%

Question: Which “activity, negative = inhibition” value does the source give for `CC(C)Oc1ccc(/C=N/NC(=O)c2ccc(N(Cc3ccccc3)S(C)(=O)=O)cc2)cc1` here?
Answer: inactive: 3.08%

Question: `CC(=O)c1cccc(NC(=S)NC(=O)c2ccccc2)c1` was tested. Which Potency did it give?
Answer: inconclusive: 79.4 µM [inhibitor, single point]

Question: `CCN(CC)CCOc1ccccc1C(C)=O` was tested. Which Potency did it give?
Answer: active: 11.2 µM

Question: Which Potency does the source give for `Cc1cccc(N/N=C(\C=N\N)C(=O)c2ccc(Br)cc2)c1` here?
Answer: inconclusive: 50.1 µM [inhibitor, partial curve]

Question: Which activity, negative = inhibition does the source give for `COC(=O)c1ccc(-c2nc(O)c3cnccn23)cc1` here?
Answer: inconclusive: -84.5% [inhibitor]

Question: With `CCOC(=O)N1CCC(N2Cc3cccc(C(=O)NCC4CCN(CC(C)C)C4)c3C2=O)CC1` (stereo unspecified) as the compound, how does the Potency read?
Answer: active: 50.1 µM

Question: How did the “activity, negative = inhibition” value turn out when `O=C(c1ccc2c(c1)OCO2)c1cn(Cc2ccc(Cl)cc2)c2ccc(F)cc2c1=O` was run?
Answer: inactive: -4.92%

Question: With `CCNC(=O)C(=O)NCC1CCCN1S(=O)(=O)c1cccs1` (stereo unspecified) as the compound, how does the “activity, negative = inhibition” value read?
Answer: inactive: 3.08% [at 102 µM]

Question: For `O=C(Cn1ncc2c1-c1ccccc1OC2)N1CCN(c2ccccc2)CC1`, which “activity, negative = inhibition” value is on record?
Answer: inactive: 4.88%

Question: `CCC(=O)Nc1ccc(-n2nnnc2SCC(=O)NNC(=O)c2ccco2)cc1` was tested. Which Potency did it give?
Answer: inconclusive: 44.7 µM [inhibitor, partial curve, poor fit]

Question: Which “activity, negative = inhibition” value does the source give for `COc1cccc2c(C)cc3nnc(SCC(=O)Nc4ccc(C)cc4)n3c12` here?
Answer: inactive: -3.33%

Question: How did the Potency turn out when `CCC(CO)NC(=O)c1cc2c(s1)CCC2` (stereo unspecified) was run?
Answer: inconclusive: 89.1 µM [inhibitor, partial curve, poor fit]

Question: For `Cc1ccc(S(=O)(=O)NNC(=S)NCC2CCCO2)cc1` (stereo unspecified), which Potency is on record?
Answer: active: 25.1 µM

Question: Which Potency does the source give for `COc1ccc2c(c1)c(=O)c(S(=O)(=O)c1ccc(F)cc1)cn2Cc1ccccc1Cl` here?
Answer: inconclusive: 4.47 µM [inhibitor, single point]

Question: Which “activity, negative = inhibition” value does the source give for `Cc1ccc(CNC(=O)C2CCCN(S(=O)(=O)c3cccc4nonc34)C2)cc1` (stereo unspecified) here?
Answer: inactive: 6.52% [at 102 µM]

Question: For `c1ccc(-n2cnnc2SCc2cn3cccnc3n2)cc1`, which Potency is on record?
Answer: inconclusive: 89.1 µM [inhibitor, partial curve, poor fit]

Question: How did the Potency turn out when `CCCC(=O)Nc1ccc2oc(-c3ccc(OC)c(Br)c3)nc2c1` was run?
Answer: inconclusive: 0.562 µM [inhibitor, partial curve, poor fit]

Question: With `COc1ccc(C)cc1N(C(=O)c1ccc(F)cc1)c1nc2ccccc2s1` as the compound, how does the Potency read?
Answer: inconclusive: 50.1 µM [inhibitor, partial curve, poor fit]

Question: `COCCN1CCN(C(=O)c2cc(COc3cncc(Cl)c3)on2)CC1` was tested. Which “activity, negative = inhibition” value did it give?
Answer: inactive: 9.88% [at 102 µM]

Question: How did the Potency turn out when `O=c1c2ccccc2n2c(-c3ccc(F)cc3)nnc2n1Cc1ccccc1` was run?
Answer: inconclusive: 39.8 µM [inhibitor, single point]

Question: How did the Potency turn out when `O=C(Nc1ccc2nccnc2c1)c1ccco1` was run?
Answer: inconclusive: 39.8 µM [inhibitor, single point]

Question: With `O=C(c1cc(C2CC2)nn1-c1ccccc1)N1CCN(c2ncc(C(F)(F)F)cc2Cl)CC1` as the compound, how does the Potency read?
Answer: inconclusive: 3.55 µM [inhibitor, single point]

Question: Which Potency does the source give for `COc1cc(C2C(C#N)=C(SC)NC3=C2C(=O)CCC3)ccc1O` (stereo unspecified) here?
Answer: inconclusive: 56.2 µM [inhibitor, partial curve]

Question: Which “activity, negative = inhibition” value does the source give for `CCOC(=O)c1c(/N=C/C2=C(O)CC(C)(C)CC2=O)sc(C)c1C` here?
Answer: inactive: 28.4% [at 102 µM]

Question: How did the Potency turn out when `COc1ccc(-c2cc(C(=O)NCc3cccs3)no2)cc1` was run?
Answer: inconclusive: 25.1 µM [inhibitor, single point]

Question: Which activity, negative = inhibition does the source give for `N#Cc1ccccc1OCC(=O)OCC(=O)c1c[nH]c2ccccc12` here?
Answer: inactive: -49% [at 12.7 µM]

Question: Which “activity, negative = inhibition” value does the source give for `CC1CCC(NC(=O)c2ccc(CS(=O)(=O)c3ccc(Cl)cc3)o2)CC1` (stereo unspecified) here?
Answer: inactive: -20.6%

Question: With `Nn1c(Cc2ccccc2)nc2cc(Cl)ccc2c1=O` as the compound, how does the Potency read?
Answer: inconclusive: 89.1 µM [inhibitor, single point]

Question: How did the Potency turn out when `CCOC(=O)C1CCN(C(=O)CCS(=O)(=O)c2ccc3c(c2)CCN3C(=O)CC)CC1` was run?
Answer: inconclusive: 100 µM [inhibitor, single point]

Question: With `CCC(C)N(C)C1CCN(C(=S)Nc2cccc(SC)c2)CC1` (stereo unspecified) as the compound, how does the Potency read?
Answer: inconclusive: 56.2 µM [inhibitor, partial curve]

Question: With `CCOC(=O)C(=O)Nc1nnc(C2CCCCC2)s1` as the compound, how does the Potency read?
Answer: active: 8.91 µM

Question: With `O=C(/C=C/c1ccco1)NC(=S)Nc1ccc(N2CCCC2)cc1` as the compound, how does the Potency read?
Answer: inconclusive: 28.2 µM [inhibitor, partial curve, poor fit]

Question: Which Potency does the source give for `COc1ccc(CCN2CC(C#N)=C3c4cc(OC)c(OC)cc4CCN3C2)cc1OC` here?
Answer: inconclusive: 89.1 µM [inhibitor, single point]

Question: For `COc1ccc(N2CCN(C(=O)Cc3ccc(C)cc3)CC2)cc1`, which Potency is on record?
Answer: active: 70.8 µM

Question: How did the Potency turn out when `O=C(CN1CCSCC1)N/N=C/c1ccc(Cl)cc1` was run?
Answer: active: 11.2 µM

Question: `COc1ccc(-c2csc3ncnc(Oc4ccc5c(C)cc(=O)oc5c4)c23)cc1` was tested. Which Potency did it give?
Answer: inconclusive: 79.4 µM [inhibitor, single point]

Question: For `CC1CCN(C(=O)CNS(=O)(=O)c2ccc(Br)s2)CC1`, which Potency is on record?
Answer: inconclusive: 89.1 µM [inhibitor, single point]

Question: For `COc1ccc(NC(=S)N2CCN(S(=O)(=O)c3ccccc3)CC2)cc1`, which Potency is on record?
Answer: inconclusive: 20 µM [inhibitor, partial curve]
